From PubChem BioAssay AID1794842 (National Center for Advancing Translational Sciences (NCATS), 2023)
The campaign covered roughly 2,800 compounds. Fewer than 10 were called active. Calls follow the shape of the dose curve; as a rule, active = well fitted curve in the direction sought with a large enough effect; inconclusive = small, poorly fitted or top-dose-only effect, or another doubt; inactive = no such curve, though single readings can be large or run the other way. Some of the results follow.

Molecular target: Metallo-beta-lactamase type 2 (Klebsiella pneumoniae) (UniProt C7C422)
Assay: qHTS to identify inhibitors of the New Delhi Metallo-beta-lactamase (NDM): Meropenem screen against the machine-based learning selections. Also: % of control where 0% means no effect.
Conditions: Purified NDM-1, meropenem hydrolysis, absorbance 300 nm; at 38.4 µM (top of the series) unless noted
Procedure, shortened: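 Hydrolysis by 2 nM NDM-1 was followed by absorbance after >30 min compound preincubation in HEPES pH 7.0 buffer with 1 uM Zn2SO4. For nitrocefin (16.7 uM, 15 min, 485 nm) and meropenem (50 uM, 30 min, 300 nm), each substrate ran on separate plates.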

Sequence of UniProt C7C422 (C7C422 whole entry, looked up): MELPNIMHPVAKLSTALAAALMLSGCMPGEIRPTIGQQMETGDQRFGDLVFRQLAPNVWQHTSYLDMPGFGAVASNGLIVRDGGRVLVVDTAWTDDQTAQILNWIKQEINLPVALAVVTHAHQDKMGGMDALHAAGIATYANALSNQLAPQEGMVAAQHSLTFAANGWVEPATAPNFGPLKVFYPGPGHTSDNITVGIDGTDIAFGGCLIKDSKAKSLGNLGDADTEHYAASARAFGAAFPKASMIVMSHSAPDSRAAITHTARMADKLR

Activity change, negative = inhibition, inactive:
O=C(NCC1CCOCC1)Nc1cc(F)c(F)c(F)c1 -0.795%, O=c1c2nc(-c3cccc(O)c3)ccc2ncn1C1CC1 29.4% [at 76.7 µM], COc1ccccc1-c1nnc([C@H]2CCN(Cc3ccccc3O)C2)o1 31.8% [at 57.5 µM], O=C(NCc1ccc2c(c1)OCO2)C1CCN(c2cn[nH]c(=O)c2)C1 (stereo not drawn) 7.33%, O=C([C@@H]1C[C@H](F)CN1C(=O)NC1CCCC1)N1CCc2ccccc2C1 2.82%, COC[C@H]1C[C@@H](NC(=O)C2CCOCC2)[C@H](O)[C@@H]1O 19.1% [at 76.7 µM], O=C(CC(c1cccc(O)c1)c1ccccc1Cl)NCc1cccnc1 (stereo not drawn) 53%, O=C(NC1C[C@H]2CC[C@@H](C1)N2C(=O)c1ccn[nH]1)c1ccncc1 (stereo partly drawn) -0.927%, CCc1nc2c(c(-c3ccc(Cl)cc3)n1)CN([S+](=O)([O-])c1ccc(C)cc1)CC2 1.22%, CC(C)c1cc(CN(C)Cc2cn[nH]c2-c2ccc(F)cc2)no1 1.33%, CC1=C[C@@H](CO)[C@H](C(C)C)C[C@H]1Cc1nnc(Cc2c[nH]c3ccccc23)o1 -0.951% [at 57.5 µM], COc1ccc(CNC(=O)C[C@@H]2O[C@H](CNC(=O)NC(C)C)[C@@H](O)[C@H]2O)cc1 55.8% [at 57.5 µM], CN(C)[C@H]1CCN(C(=O)Cc2cn(C)c3ccccc23)C[C@H]1CCC(=O)O -1.41%, Cc1ccc(C(=O)N2CC[C@@H]3CN(S(C)(=O)=O)[C@@H]3C2)c(=O)[nH]1 4.02%, O=C(NC1CCC(n2cnnc2)CC1)c1ccc(Cn2cnnn2)cc1 (stereo not drawn) -0.42%, Cc1ccc2nc(C)cc(C(=O)N3CCC(c4cc(CC(=O)O)[nH]n4)CC3)c2c1 82.3%, OC1CC([C@@H](Cc2ccccn2)NC2CCC3(CCNCC3)CC2)C1 (stereo partly drawn) 39.1%, O=C(N[C@H]1CCN2C(=O)c3cc(-c4ccc(F)cc4F)ccc3NC(=O)[C@H]12)c1cccs1 2.94%, COc1ccc2nc([C@H]3CCN(C4CCN(C)CC4)C3)[nH]c2c1 4.12% [at 57.5 µM], CC(=O)c1ccc(NC(=O)N[C@H]2CCN3C(=O)[C@@H](Cc4ccccc4)NC(=O)[C@H]23)cc1 18% [at 57.5 µM], COc1ccc(CN2CCC[C@H]2c2nc(-c3cncnc3N)no2)c(O)c1 9.36% [at 57.5 µM], c1cncc(Nc2cc3c(cn2)CN(Cc2cccs2)CCN3)c1 14% [at 57.5 µM], O=C(NCc1cccnc1)[C@@H]1C[C@@H](c2ccc(F)cc2)N(Cc2ccccc2)C1 -0.331% [at 57.5 µM], COc1ccc(CCN(Cc2ccncc2)C(=O)CC2COCCN2)cc1 (stereo not drawn) 66.9%, Fc1ccc(-c2ccc3ncc(Nc4ccccn4)n3n2)cc1 13.9% [at 57.5 µM], CCn1ccc2cc(C(=O)N3CCC(=O)N(CC4CC4)C(C(C)C)C3)ccc21 (stereo not drawn) -2.06%, COC(=O)c1ccc2nc(C[C@@H]3C[C@@H](C(C)C)[C@H](CN(C)C)C=C3C)[nH]c2c1 -3.18% [at 57.5 µM], CS(=O)(=O)N1CCCC(c2nc(-c3ccccc3)no2)CCNC(=O)CC1 (stereo not drawn) 0.558%, C[C@]1(CO)[C@H]2Cc3sc(NC(=O)c4ccc(F)cc4)nc3[C@@H](CC(=O)Nc3ccccc3)[C@]2(C)CC[C@H]1O 1.39%, NC(=O)c1ccc(Nc2cnc3ccc(-c4ccccc4)nn23)cc1 18.6% [at 57.5 µM], NCCn1cc(C(=O)NCCS(=O)(=O)N2CCCC2)nn1 -0.385%, CC(=O)NC1(C)CCCN(Cc2cc(-c3ccccc3)cs2)C1 (stereo not drawn) -0.985% [at 57.5 µM], O=C(O)c1ccc(-c2ncc3cnc(-c4cccc(F)c4)cn23)cc1 67.6% [at 57.5 µM], Cc1cccc(-n2cc(CN3CCN(c4cc(N)nc(N)n4)CC3)cn2)c1 1.22%, CCNC(=O)N1CC[C@@H](CC(=O)O)[C@@H](CC2=NCCc3ccc(C)cc32)C1 13% [at 57.5 µM], O[C@@H]1[C@@H](Cn2cc(-c3cccnc3)nn2)C[C@@H](NCc2ccc(F)cc2)[C@@H]1O 52.8%, O=C(N[C@H](Cc1ccncc1)C1CC(O)C1)c1ccc(CO)o1 (stereo partly drawn) -0.128%, Cc1ccc(NC(=O)N2CCCC(Cn3c(C4CC4)nc4cccnc43)C2)c(C)c1 (stereo not drawn) -0.195%, CC(=O)Nc1ccc(S(=O)(=O)N[C@H]2CO[C@H]3[C@@H]2OC[C@@H]3n2nnnc2Oc2ccc(-n3ccnc3)cc2)cc1 0.151%, Cc1c(CN2C[C@@H](COc3ccccc3)[C@H](C(N)=O)C2)cnn1C -2.84%, CN1CCC(OCCCn2cnc3cn(C)nc3c2=O)CC1 -0.7%, O=C(NCc1cccnc1)c1ccc2oc(-c3ccc(C(F)(F)F)cc3)nc2c1 1.9%, CC1(COc2ccccc2)COc2ccc(C(=O)NCCc3ccccn3)cc2N1 (stereo not drawn) 7.78% [at 57.5 µM], O=C1[C@@H]2C[C@@H](O)CN2C2(CN(C3Cc4ccccc4C3)C2)C(=O)N1Cc1ccccc1F 1.17%, CC(NC(=O)OCc1ccccc1)c1nc2cccnc2n1C1CCCCC1 (stereo not drawn) 1.17%, O=C1C[C@@H]2CCN(C(=O)Nc3ccccc3)C[C@@H]2CCN1CCc1cnc[nH]1 5.4% [at 57.5 µM], COc1cccc(CN2CC3(C2)C(=O)N(Cc2ccccc2F)C(=O)[C@@H]2C[C@@H](O)CN23)c1 1%, COc1ccc(C2(C(=O)N3CCCC(Cc4nc(C5CCOCC5)no4)C3)CC2)cc1 (stereo not drawn) -1.04%, Cc1nccc(-c2ccccc2)c1C(=O)N[C@H]1C[C@@H]2OCC[C@H]12 7.5%, C[C@@]1(O)CCN(c2ncccc2C(=O)c2nccs2)C[C@@H]1O 8.46%, C[C@@H](NS(=O)(=O)c1ccccc1)c1onc(-c2cccnc2)c1C(=O)O 2.4% [at 57.5 µM], O=C(NC[C@H]1OC[C@@H](NC2CCC(F)(F)CC2)[C@@H]1O)C1CC1 0.28% [at 57.5 µM], c1ccc(-c2nnc3ccc(NCc4cccs4)nn23)nc1 9.11% [at 57.5 µM], OCC1CN(c2ccncn2)CC12CCN(Cc1c[nH]c3ccccc13)CC2 (stereo not drawn) 1.68%, CC(C)Oc1ccc(C(=O)N2CCC3(CC2)C(=O)N(C)c2ccccc23)cc1 -1.61%, Cc1ccc(S(=O)(=O)N2C[C@@H](C(N)=O)[C@H](C3CCN(C)CC3)C2)cc1Cl -1.93%, COc1ccccc1Nc1ncc2c(n1)CN(C(=O)c1cccc(O)c1)CCN2 15.1% [at 57.5 µM], COCCNC(=O)C[C@@H]1C[C@H]2O[C@H](CNC(=O)N3CCOCC3)[C@@H](O)[C@H]2O1 -0.183% [at 57.5 µM], CC(C)(C)C(=O)N1C[C@H]2OC(=O)N(CCc3cccc(Cl)c3)[C@H]2C1 -2.99%, Cc1ccc2c(c1)nc1n2[C@@H](CNCc2ccc(S(C)(=O)=O)cc2)COC1 0.808% [at 57.5 µM], CC(Cc1ccc2c(c1)OCO2)CN1CCC(CO)(CN2CCCC2)CC1 (stereo not drawn) -2.2%, COc1ccc(-c2ccnc3nc(CCc4ccccc4)nn23)c(F)c1 -0.957%, OCc1ccnc(-c2ccc(-c3ccn[nH]3)cc2)c1 22%, Cn1ncc(N2CCC(NC(=O)c3ccsc3)CC2)cc1=O 0.878%, O=C(CC[C@@H]1CNC(=O)[C@@H]2C[C@H](NCc3ccc(F)cc3)CN12)NCc1ccc(F)cc1 -0.358%, COc1ccc(NC(=O)N[C@H]2CO[C@H]3[C@@H]2OC[C@H]3OC(=O)Nc2ccc(OC)cc2)cc1 2.71%, COc1ccc(CC2(CO)CCN(c3nccc(N)n3)CC2)cc1 -1.44%, COc1ccc(CN2CCOc3ccc(C(=O)NCc4ccc(C)cc4)cc3C2)c(OC)c1 0.837%, CC(=O)N1CCC(N2CCOC[C@H]2c2ncc(-c3ccncc3)[nH]2)CC1 5.66% [at 57.5 µM], Cc1c(C(=O)N2CCCn3nc(C(C)O)cc3C2)sc2nc[nH]c(=O)c12 (stereo not drawn) 1.13%, O=C1NCC(c2ccc(Cl)cc2)Cc2[nH]c(-c3ccc(O)cc3)nc21 (stereo not drawn) 8.24%, Cc1cc(F)ccc1OC1CN(Cc2ccc(F)cc2)C1 -0.758% [at 57.5 µM], O=C(O)c1ccccc1C(=O)N[C@H]1CO[C@H]2[C@@H]1OC[C@@H]2n1nnnc1-c1ccc2c(c1)OCO2 1.16%, O=C(NCCc1ccccn1)C1CCCN(c2nc(-c3ccccc3)nc3c2CCC3)C1 (stereo not drawn) 29.6%, c1ccc(-c2nnc3ccc(NC4CCC4)nn23)nc1 17.9% [at 76.7 µM], O=C(O)C1(CCc2ccccc2)CCCN(c2ncnc3nc[nH]c23)C1 (stereo not drawn) 20.7%, NC(=O)Cc1c[nH]c2ncc(-c3ccccc3Oc3ccccc3)cc12 5.46% [at 57.5 µM], CCNC(=O)[C@@H]1C[C@H](NC(=O)c2ccccc2)CN1Cc1scnc1C -0.341%
